Results as given in PubChem BioAssay AID602310 (National Center for Advancing Translational Sciences (NCATS), 2012).
Among all 410,000 compounds or so, about 310 (0.076%) were called active. The inconclusive results got no clear call from the source; some entries with a clear call stand among them for comparison. Calls follow the shape of the dose curve; as a rule, active = well fitted curve in the direction sought with a large enough effect; inconclusive = small, poorly fitted or top-dose-only effect; inactive = flat fitted curve, though single readings scatter. A potency beside an inconclusive call is a rough fit, not a confirmed value.

Target: DNA dC->dU-editing enzyme APOBEC-3G (Homo sapiens) (UniProt Q9HC16)
UniProt Q9HC16, sequence (Q9HC16 whole entry, looked up): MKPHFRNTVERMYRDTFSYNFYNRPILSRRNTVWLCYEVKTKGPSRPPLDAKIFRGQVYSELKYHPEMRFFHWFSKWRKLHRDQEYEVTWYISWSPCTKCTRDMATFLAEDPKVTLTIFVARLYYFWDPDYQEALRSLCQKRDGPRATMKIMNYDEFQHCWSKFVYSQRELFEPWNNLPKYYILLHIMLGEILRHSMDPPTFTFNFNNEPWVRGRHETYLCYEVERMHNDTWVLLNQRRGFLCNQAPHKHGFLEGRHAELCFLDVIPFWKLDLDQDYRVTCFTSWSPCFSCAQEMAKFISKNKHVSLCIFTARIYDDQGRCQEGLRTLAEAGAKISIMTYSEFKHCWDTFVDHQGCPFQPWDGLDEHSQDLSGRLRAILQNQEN
Assay: qHTS for Inhibitors of Vif-A3G Interactions: qHTS; also: nearly all actives have a fitted effect of over 60% in size
Conditions: HeLa A3G-eYFP + Vif (tagged APOBEC3G with the HIV-1 protein that degrades it), YFP fluorescence, overnight; series mostly up to 46.1 µM
Procedure, shortened: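 HeLa cells stably expressing Vif and C-terminally eYFP-tagged A3G, seeded overnight at 37 deg C, then exposed to compound by pintool overnight at 37 deg C. Rise in yellow fluorescence (Ex 488/Em 500-530, Acumen) marks blocked Vif-driven A3G degradation.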
Potency is read from the fitted curve at half-maximal effect; tags tell the direction and shape of the fitted curve.

| SMILES | Potency |
| --- | --- |
| Cc1ccccc1C=Nc1ccccc1C(N)=O | inconclusive: 6.31 µM [inhibitor, full curve] |
| COc1ccc(/C=N/NS(=O)(=O)c2ccccc2)cc1OS(=O)(=O)c1ccc(C)cc1 | inconclusive: 17.8 µM [inhibitor, single point] |
| Cc1ccc(CNC(=O)Cc2ccc(Br)cc2)cc1 | inconclusive: 3.98 µM [inhibitor, full curve] |
| CC1(C(=O)NCC2CC2)Cc2c(-c3cccc(C(F)(F)F)c3)ccnc2O1 (centres undefined) | inconclusive: 6.31 µM [inhibitor, partial curve, poor fit] |
| CC(=O)Nc1cc(N=Cc2ccc(O)cc2O)c(Cl)cc1Cl | inconclusive: 35.5 µM [inhibitor, single point] |
| N#CC(C#N)=NNc1ccc2cn[nH]c2c1 | inactive |
| CC[N+](C)(C)c1ccc(/C=C/c2ccncc2)cc1 | active: 10 µM |
| Cc1c(C(=O)C(=O)N2c3ccccc3CC2C)c2ccccc2n1C (centres undefined) | inconclusive: 10 µM [inhibitor, partial curve] |
| COc1ccc(C2=Nn3c(nnc3-c3ccccc3OC)SC2)cc1OC1CCOC1 (centres undefined) | inconclusive: 1.41 µM [inhibitor, full curve, poor fit] |
| Cc1cc2c(cc1C)N[C@]1(C[C@H]3CCCC(=O)N4CC[C@@H](C1)[C@@H]34)C(=NC1CCCCC1)N2 | inactive |
| COc1ccc(-c2nn(-c3ccccc3)cc2/C=N/NC(N)=S)cc1OC | inconclusive: 1.12 µM [inhibitor, full curve, poor fit] |
| O=C1c2cccc3c([N+](=O)[O-])ccc(c23)C(=O)N1c1nccs1 | inconclusive: 17.8 µM [inhibitor, partial curve, poor fit] |
| CCOC(=O)c1c(C)c(C(=O)Nc2cc(F)ccc2F)c(C)n1C | inconclusive: 5.01 µM [inhibitor, partial curve] |
| CCNc1ccccc(C(=O)/C=C/c2ccc3c(c2)OCO3)c1=O | inconclusive: 31.6 µM [inhibitor, single point] |
| O=C(Cc1cccc(C(F)(F)F)c1)NCC(=O)Nc1cc(Cl)ccc1Cl | inconclusive: 20 µM [inhibitor, single point] |
| COC1=C(C)C(O)=C(C(=O)/C=C/c2ccccc2)C(=O)C1(C)C | inconclusive: 22.4 µM [inhibitor, single point] |
| O=C1CC2(CCCCC2)CC(=O)N1CCc1ccccc1 | inactive |
| Cc1ccc(C)c(NC(=O)C(Sc2nc3ccc(C)cc3[nH]2)c2ccccc2)c1 (centres undefined) | inactive |
| CCOc1cc(/C=C2\COc3ccccc3C2=O)ccc1OCC(=O)N(C)C | inconclusive: 17.8 µM [inhibitor, single point] |
